The text below walks through data of a melting point compilation (Tetko et al.; mined from patent text by program, amines drawn as free bases though some values may be those of a salt).

Molecules are shown by their SMILES.

`Cn1c(=O)[nH]c(=O)c2c1ncn2Cc1ccccc1` displayed a melting point of 263 °C.

With `CS(=O)(=O)OC1CCN(c2ccccn2)CC1`, the melting point lay within 66 to 68 °C.

In the case of `CCCn1nc2c(N)nc3ccccc3c2c1CCCCN`, the melting point lay within 137 to 139 °C.

As a reminder, the melting point is the temperature of the solid-liquid transition.
